Laboratory results taken from the supplement of paper PMC8512760.
The other results are listed elsewhere or left out. Single values are uncertain, as repeats are few or missing.

Legend:
Test in all cases: cell viability relative to vehicle (% of vehicle); basal-like triple-negative breast cancer lines; higher = less cytotoxic
Conditions in all cases: 10 µM; 72 h
HCC-1143 = test system: HCC-1143
HCC-1187 = test system: HCC-1187
MDA-468 = test system: MDA-468
SUM-149 = test system: SUM-149
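Also: stably firefly luciferase-GFP labeled cells in 96-well plates, viability read as luciferase photon flux after d-luciferin addition, treated wells normalized to vehicle wells, single-dose high-throughput screen.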

| SMILES | cell viability (HCC-1143) | cell viability (HCC-1187) | cell viability (MDA-468) | cell viability (SUM-149) |
| --- | --- | --- | --- | --- |
| CC1CC2C(C(O)CC3(C)C2CCC3(O)C(=O)CO)C2(C)C=CC(=O)C=C12 (configuration not stated) [Methylprednisolone] | 96.7 | 108 | 137 | – |
| CCCSc1ccc2nc(NC(=O)OC)[nH]c2c1 [Albendazole] | 87.2 | 93.3 | 61.9 | – |
| OCCOCCN1CCN(C2=Nc3ccccc3Sc3ccccc32)CC1 [Quetiapine] | 100 | 105 | 97.2 | 122 |
| CCC(=O)OC1(C(=O)CCl)C(C)CC2C3CC(F)C4=CC(=O)C=CC4(C)C3(F)C(O)CC21C (configuration not stated) [Halobetasol Propionate] | 121 | 116 | 108 | – |
| Nc1nc(F)nc2c1ncn2C1OC(CO)C(O)C1O (configuration not stated) [Fludarabine] | 72.4 | 75 | 91.5 | – |
| COC(=O)Nc1nc2ccc(Sc3ccccc3)cc2[nH]1 [Fenbendazole] | 126 | 57.3 | 90.7 | – |
| COc1cccc2c1C(=O)c1c(O)c3c(c(O)c1C2=O)CC(O)(C(=O)CO)CC3OC1CC(N)C(O)C(C)O1 (configuration not stated) [Doxorubicin] | 48.2 | 28 | 32.8 | 48.1 |
| CN(CCOc1ccc(CC2SC(=O)NC2=O)cc1)c1ccccn1 (configuration not stated) [Rosiglitazone] | 133 | 99.6 | 140 | – |
| O=c1[nH]c(=O)n(C2CC(O)C(CO)O2)cc1I (configuration not stated) [Idoxuridine] | 89.6 | 121 | 156 | – |
| CCC(=O)OC1(C(=O)SCF)C(C)CC2C3CC(F)C4=CC(=O)C=CC4(C)C3(F)C(O)CC21C (configuration not stated) [Fluticasone propionate] | 87 | 104 | 167 | – |
